Some of the results follow. Sequences were assembled here from the parent chain. Values near 0.05 are background.
B1: TEV protease; numbered along this chain (parent)
chain: MGESLFKGPRDYNPISSSICHLTNESDGHTTSLYGIGFGPFIITNKHLFRRNNGTLVVQSLHGVFKVKDTTTLQQHLVDGRDMIIIRMPKDFPPFPQKLKFREPQREERICLVTTNFQTKSMSSMVSDTSCTFPSGDGIFWKHWIQTKDGQCGSPLVSTRDGFIVGIHSASNFTNTNNYFTSVPKNFMELLTNQEAQQWVSGWRLNADSVLWGGHKVFMVKPEEPFQPVKEATQL

Variants of: B1
Assay: raw area under fraction-flipped curve 0-4 h after induction (AUC4h, not background-subtracted), DNA-recorder readout of cleavage of the substrate (dimensionless); higher = more cleavage of the substrate by the protease variant
Conditions: temperature: 34 °C; time window: 0-4 h after rhamnose induction
Experimental: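 In vivo DNA recorder in E. coli TOP10(DE3) ΔrhaA at 34 °C. Each TEVp single-site mutant (parent TEVp 0) is paired with a single-site variant of the 7-mer TEVs (canonical ENLYFQ|S). The substrate sits between flexible linkers in a Bxb1-sfGFP-TEVs-SsrA fusion, so cleavage stabilises Bxb1 and speeds flipping of a recombination array, read by NGS. The value is the raw area under the fraction-flipped curve over 0-4 h after rhamnose induction (AUC4h), with ≥20 reads per time point. It is not background-subtracted; inactive controls average about 0.047.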
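Further: Bxb1 expression induced with 0.2% (w/v) L-rhamnose at OD600 near 0.5, cultures sampled hourly, flipped fraction per protease–substrate barcode pair counted by paired-end Illumina sequencing.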

Row | Variant | area with substrate ENLYAQS | area with substrate ENLYDQS | area with substrate ENLYEQS | area with substrate ENLYHQS | area with substrate ENLYIQS | area with substrate ENLYKQS | area with substrate ENLYLQS | area with substrate ENLYMQS | area with substrate ENLYNQS | area with substrate ENLYPQS | area with substrate ENLYQQS | area with substrate ENLYRQS | area with substrate ENLYSQS | area with substrate ENLYWQS | area with substrate ENLYYQS | area with substrate ENLYCQS | area with substrate ENLYGQS | area with substrate ENLYTQS | area with substrate ENLYVQS
1 | Q105D | 0.0583 | 0.0609 | 0.0563 | 0.0702 | 0.14 | 0.0648 | 0.0868 | 0.132 | 0.0687 | 0.0684 | 0.082 | 0.0467 | 0.0938 | 0.0745 | 0.0623 |  |  |  | 
2 | R102H | 0.0499 | 0.0527 | 0.0566 | 0.0571 |  | 0.0457 |  | 0.0616 | 0.0579 | 0.0506 | 0.0523 | 0.0496 | 0.0546 | 0.062 |  | 0.0558 | 0.0576 | 0.0494 | 0.0739
3 | S154W | 0.0677 | 0.0527 | 0.0696 |  |  | 0.0627 | 0.0677 | 0.0552 | 0.0688 | 0.0672 |  | 0.0662 |  | 0.0605 | 0.0981 | 0.07 | 0.0608 | 0.083 | 0.0456
4 | S127G | 0.0798 | 0.0648 | 0.0604 | 0.0748 | 0.14 | 0.0649 |  | 0.0789 | 0.0792 | 0.0732 | 0.0659 | 0.0707 |  | 0.0954 |  | 0.0922 | 0.0714 |  | 0.126
5 | S127E | 0.0541 | 0.0831 | 0.0749 | 0.0586 | 0.117 | 0.0655 | 0.0852 | 0.0722 | 0.0595 | 0.0685 | 0.0722 | 0.0618 | 0.0645 | 0.0757 |  |  | 0.0738 | 0.0784 | 0.0067
6 | F133K | 0.0782 | 0.0633 | 0.0571 | 0.0484 |  | 0.0468 | 0.0903 | 0.0874 |  |  | 0.0704 | 0.0709 | 0.08 | 0.0907 |  |  | 0.0669 | 0.0938 | 0.128
7 | P155D | 0.047 | 0.0613 | 0.0484 | 0.0562 | 0.0402 | 0.0448 | 0.0617 | 0.0444 | 0.0536 | 0.0535 | 0.0621 | 0.0358 | 0.0542 | 0.0455 | 0.0762 |  | 0.0488 | 0.0557 | 
8 | K98L | 0.0557 | 0.0537 | 0.0801 | 0.0705 | 0.117 | 0.0424 |  | 0.0787 | 0.0725 |  | 0.0688 | 0.0616 | 0.0735 | 0.0732 | 0.027 |  | 0.0778 |  | 
9 | K98C | 0.0766 | 0.0626 | 0.0057 | 0.0739 | 0.102 | 0.0539 | 0.0926 |  | 0.065 | 0.061 | 0.0715 | 0.062 | 0.0781 | 0.0846 | 0.0558 | 0.074 | 0.0696 |  | 0.13
10 | F92C | 0.0885 | 0.0662 | 0.06 | 0.0709 | 0.112 | 0.0266 | 0.0537 | 0.0938 | 0.0563 | 0.0653 | 0.0652 | 0.0683 | 0.0732 | 0.086 | 0.0657 |  | 0.0525 | 0.0919 | 0.129
11 | V113G | 0.0817 | 0.05 | 0.0795 |  |  |  |  | 0.0768 |  |  |  | 0.0654 |  | 0.0644 |  |  | 0.0408 | 0.0751 | 
12 | P134G | 0.0864 | 0.068 | 0.0618 | 0.0608 | 0.0989 | 0.0637 |  | 0.0744 | 0.057 | 0.0671 | 0.0563 |  | 0.0531 | 0.0736 | 0.0742 |  |  |  | 0.0649
13 | P134D | 0.0698 | 0.0646 | 0.0644 | 0.0652 | 0.0934 | 0.0619 | 0.059 | 0.0654 | 0.0608 |  | 0.0633 | 0.0578 | 0.0804 | 0.0635 | 0.0513 | 0.0786 | 0.0653 | 0.0848 | 0.0903
14 | T147Q | 0.0554 | 0.0665 | 0.0475 | 0.0722 | 0.0415 | 0.0606 |  |  | 0.0616 | 0.059 | 0.0623 |  | 0.0802 | 0.0585 |  |  |  |  | 0.061
15 | G150H | 0.0662 | 0.0499 | 0.0722 | 0.0629 | 0.0609 | 0.0567 | 0.0538 | 0.06 | 0.0622 | 0.054 | 0.0791 | 0.0563 | 0.102 | 0.0322 |  |  | 0.0623 | 0.0694 | 0.0512
16 | G150V | 0.0565 | 0.0611 | 0.0648 | 0.0574 | 0.0627 | 0.051 | 0.0461 | 0.0592 | 0.0678 | 0.0586 | 0.0584 | 0.0694 | 0.0681 | 0.0594 | 0.0542 | 0.0859 | 0.0532 | 0.0567 | 0.0593
17 | C111S | 0.0875 | 0.0671 | 0.0773 | 0.0589 | 0.118 | 0.0664 |  | 0.081 | 0.0499 | 0.0663 | 0.0674 | 0.0481 | 0.0724 | 0.0432 | 0.0569 | 0.0815 | 0.0541 | 0.0843 | 0.112
18 | S135R | 0.0657 | 0.0658 | 0.0584 | 0.0617 |  | 0.0495 |  | 0.0564 | 0.0553 | 0.058 | 0.0991 | 0.0638 | 0.0669 | 0.0634 | 0.0582 | 0.0719 | 0.0658 |  | 
19 | T132A | 0.103 | 0.06 | 0.0601 | 0.0596 | 0.166 | 0.0662 |  | 0.093 | 0.0741 |  | 0.0594 | 0.0624 | 0.0713 | 0.0834 | 0.058 |  | 0.0591 | 0.0866 | 
20 | R109W | 0.0847 | 0.0588 |  | 0.0691 | 0.111 |  |  | 0.068 | 0.0685 | 0.076 | 0.0795 | 0.0582 | 0.0705 | 0.0748 |  | 0.0883 | 0.0654 | 0.0915 | 
21 | R109I | 0.082 | 0.0599 | 0.0611 | 0.0496 | 0.114 | 0.0598 | 0.0712 | 0.0901 | 0.0589 | 0.063 | 0.0731 | 0.0683 | 0.0317 | 0.0726 | 0.1 |  | 0.066 |  | 0.103
22 | R109G | 0.0623 | 0.0608 | 0.0678 | 0.0731 | 0.135 | 0.0674 |  | 0.0804 | 0.0682 |  | 0.07 | 0.0679 | 0.0811 | 0.0755 | 0.0519 |  | 0.0657 |  | 
23 | C152P | 0.0586 | 0.0673 | 0.0607 | 0.0506 |  | 0.0643 | 0.054 | 0.0573 | 0.0555 | 0.0579 |  | 0.0587 | 0.0586 | 0.045 |  | 0.057 |  |  | 0.0553

Reference: the supplement of paper PMC12217912
